US20190083612A1 (RINAT NEUROSCIENCE, published 2019)

Columns and labels:
[1] = molecular target: T1, cynomolgus monkey PD-1 on stably transfected Jurkat cells (cynomolgus monkey); experiment: FACS, Jurkat/cynomolgus monkey-PD-1, average ± sem
T1 construct: whole, on cells; also called Jurkat/Cynomolgus Monkey-PD-1; Cynomolgus Monkey-PD-1/Jurkat

[2] = molecular target: T2, cynomolgus monkey PD-1 on primary cynomolgus monkey T cells (cynomolgus monkey, UniProt B0LAJ3 25-288); experiment: FACS, blockade of PD-L1 Fc binding to PD-1 on activated cyno T cells
T2 construct: also called PD-1 on cyno T cells

[3] = molecular target: T3, human PD-1 (hPD-1) monomer (human, UniProt Q15116 partial chain); experiment: KinExA in solution, 23 C, PD-1 titrated; 95% confidence interval (24-12)
T3 construct: also called hu-PD-1; not shown: His tag (His-tagged monomer)

[4] = molecular target: T2, cynomolgus monkey PD-1 on primary …; experiment: FACS, activated primary cynomolgus monkey T cells, average ± sem
[5] = molecular target: hu-FcRn (human neonatal Fc receptor) (human, UniProt P55899 partial chain; P61769 partial chain, limits assumed); experiment: SPR (ProteOn NLC chip), 25 C, pH 5.9
Cynomolgus Monkey-FcRn = molecular target: T4, Cynomolgus Monkey-FcRn (cynomolgus monkey, UniProt Q8SPV9 24-297, limits assumed); experiment: SPR (ProteOn NLC chip), 25 C, pH 5.9
T4 construct: also called cynomolgus monkey-neonatal Fc receptor

[6] = molecular target: T1, cynomolgus monkey PD-1 on stably …; experiment: FACS, blockade of cyno PD-L2 (20 µg/mL) on cyno-PD-1/Jurkat, repeat 1
[7] = molecular target: T5, human PD-1 on stably transfected Jurkat cells (human, UniProt Q15116 25-288); experiment: FACS, blockade of biotinylated hu-PD-L1 on human-PD-1/Jurkat, average ± sem
T5 construct: also called Jurkat/Human-PD-1; Human-PD-1/Jurkat

[8] = molecular target: T3, human PD-1 (hPD-1) monomer; experiment: SPR (Biacore T200), hPD-1 monomer over anti-hFc-captured hIgG4, 25 C
Method: All interaction analysis was performed on label-free biosensors at 25° C. unless stated otherwise. Surface plasmon resonance biosensors (ProteOn-XPR™ from BioRad™, and Biacore 2000™ and Biacore T200™ from GE Life Sciences) were used to study human and cynomolgus monkey PD-1 and a biolayer interferometry biosensor (Octet-Red384, Fortebio/Pall Life Sciences) was used to study mouse PD-1. ProteOn experiments were performed in PBS pH 7.4+0.01% Tween-20 (PBST) running buffer. Biacore experiments were performed in 10 mM Hepes pH 7.4, 150 mM NaCl, 0.05% Tween-20 (HBST+) and Octet experiments were performed in HBST+ with 1 g/l BSA. The ProteOn data were processed in the ProteOn Manager software, the Biacore data were processed in Biaevaluation, and the Octet data were simply aligned to zero in the control software.
The hPD-1 was injected at active concentrations of 0, 10, and 100 nM for three minutes allowing an 18-min dissociation phase. The capture surfaces were regenerated with 75 mM phosphoric acid after each binding cycle.

hu-FCGRI (hu-CD64) = molecular target: T6, hu-FCGRI (hu-CD64) (human, UniProt P12314 16-288, limits assumed); experiment: SPR (ProteOn NLC chip), 25 C, pH 7.4
T6 construct: also called human Fc gamma receptor I

[9] = molecular target: T7, hu-FCGRIIa (hu-CD32a) 131H (human, UniProt P12318 36-218); experiment: SPR (ProteOn NLC chip), 25 C, pH 7.4
T7 sequence (looked up): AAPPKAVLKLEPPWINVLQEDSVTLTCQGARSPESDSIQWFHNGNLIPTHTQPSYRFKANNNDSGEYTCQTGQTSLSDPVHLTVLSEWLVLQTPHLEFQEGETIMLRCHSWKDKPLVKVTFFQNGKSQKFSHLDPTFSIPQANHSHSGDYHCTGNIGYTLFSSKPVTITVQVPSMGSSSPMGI

[10] = molecular target: hu-FCGRIIIa (hu-CD16a) 158V (human, UniProt P08637 partial chain, limits assumed); experiment: SPR (ProteOn NLC chip), 25 C, pH 7.4
[11] = molecular target: Cynomolgus Monkey-FCGRIIIa 42R (cynomolgus monkey, UniProt Q8SPW2 17-208); experiment: SPR (ProteOn NLC chip), 25 C, pH 7.4
hu-FCGRIIb (hu-CD32b) = molecular target: T8, hu-FCGRIIb (hu-CD32b) (human, UniProt P31994 46-217); experiment: SPR (ProteOn NLC chip), 25 C, pH 7.4
T8 sequence (looked up): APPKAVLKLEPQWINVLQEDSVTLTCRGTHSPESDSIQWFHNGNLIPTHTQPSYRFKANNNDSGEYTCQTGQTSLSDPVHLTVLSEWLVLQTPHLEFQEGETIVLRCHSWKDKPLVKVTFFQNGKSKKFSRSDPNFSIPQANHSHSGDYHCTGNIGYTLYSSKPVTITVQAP

[12] = molecular target: Cynomolgus Monkey-FCGRIIIa 42S (cynomolgus monkey); experiment: SPR (ProteOn NLC chip), 25 C, pH 7.4
[13] = molecular target: T9, Cynomolgus Monkey-FCGRIIa (cynomolgus monkey); experiment: SPR (ProteOn NLC chip), 25 C, pH 7.4
T9 chain: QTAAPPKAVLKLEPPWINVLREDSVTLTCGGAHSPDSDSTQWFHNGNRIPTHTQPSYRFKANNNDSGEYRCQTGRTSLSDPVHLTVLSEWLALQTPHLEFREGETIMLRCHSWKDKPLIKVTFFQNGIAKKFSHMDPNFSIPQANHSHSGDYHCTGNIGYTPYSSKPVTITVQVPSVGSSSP

[14] = molecular target: T10, hu-FCGRIIa (hu-CD32a) 131R (human, UniProt P12318 36-218); experiment: SPR (ProteOn NLC chip), 25 C, pH 7.4
T10 sequence (looked up): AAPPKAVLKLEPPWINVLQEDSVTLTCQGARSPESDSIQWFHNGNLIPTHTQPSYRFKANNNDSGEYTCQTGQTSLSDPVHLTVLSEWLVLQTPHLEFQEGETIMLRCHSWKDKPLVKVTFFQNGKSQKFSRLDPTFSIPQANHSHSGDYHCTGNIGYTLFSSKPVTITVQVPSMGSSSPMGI

T3 sequence (Q15116 25-167 limits assumed): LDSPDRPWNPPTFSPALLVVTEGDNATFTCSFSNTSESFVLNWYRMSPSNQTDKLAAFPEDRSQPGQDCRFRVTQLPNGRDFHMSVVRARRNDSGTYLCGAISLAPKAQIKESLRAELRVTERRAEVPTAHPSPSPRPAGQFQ
T2 sequence (B0LAJ3 entry or part of it limits assumed): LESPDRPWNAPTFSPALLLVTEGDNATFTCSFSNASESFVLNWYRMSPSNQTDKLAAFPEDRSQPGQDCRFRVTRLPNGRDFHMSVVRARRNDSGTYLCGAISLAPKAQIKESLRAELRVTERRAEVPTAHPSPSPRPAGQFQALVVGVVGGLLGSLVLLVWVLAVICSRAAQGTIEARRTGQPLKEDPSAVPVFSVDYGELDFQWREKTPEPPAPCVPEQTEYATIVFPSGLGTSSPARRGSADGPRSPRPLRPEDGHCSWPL
Sequence of hu-FCGRI (hu-CD64) (P12314 16-288 limits assumed): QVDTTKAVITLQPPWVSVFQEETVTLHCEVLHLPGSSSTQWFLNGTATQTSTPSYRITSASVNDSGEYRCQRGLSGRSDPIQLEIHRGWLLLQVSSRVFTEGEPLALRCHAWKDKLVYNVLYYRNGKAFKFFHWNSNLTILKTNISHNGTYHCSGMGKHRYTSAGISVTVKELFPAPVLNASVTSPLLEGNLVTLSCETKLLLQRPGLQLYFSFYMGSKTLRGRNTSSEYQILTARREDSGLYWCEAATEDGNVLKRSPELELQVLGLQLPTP
Sequence of UniProt Q8SPW2 (Q8SPW2 17-208 limits assumed): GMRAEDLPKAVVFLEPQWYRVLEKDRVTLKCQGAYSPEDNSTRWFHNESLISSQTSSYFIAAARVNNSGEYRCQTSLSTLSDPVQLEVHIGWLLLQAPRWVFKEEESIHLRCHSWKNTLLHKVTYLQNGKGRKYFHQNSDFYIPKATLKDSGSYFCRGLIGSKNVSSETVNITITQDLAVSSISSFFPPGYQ
Sequence of UniProt P08637 (P08637 17-208 F176V limits assumed): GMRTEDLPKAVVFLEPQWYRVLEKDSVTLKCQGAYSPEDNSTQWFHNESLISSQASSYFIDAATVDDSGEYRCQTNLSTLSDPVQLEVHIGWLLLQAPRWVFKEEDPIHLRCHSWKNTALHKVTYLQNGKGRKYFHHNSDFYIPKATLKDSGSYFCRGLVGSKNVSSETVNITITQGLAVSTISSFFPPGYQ
Sequence of Cynomolgus Monkey-FcRn (Q8SPV9 24-297 limits assumed, form in doubt): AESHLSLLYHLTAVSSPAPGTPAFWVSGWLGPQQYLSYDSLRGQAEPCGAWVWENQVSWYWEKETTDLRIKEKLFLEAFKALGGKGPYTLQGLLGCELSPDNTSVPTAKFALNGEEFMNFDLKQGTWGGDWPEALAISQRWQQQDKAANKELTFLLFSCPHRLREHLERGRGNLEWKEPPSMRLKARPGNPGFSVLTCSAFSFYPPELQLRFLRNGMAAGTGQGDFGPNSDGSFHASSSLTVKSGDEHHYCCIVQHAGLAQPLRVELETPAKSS

EC50 [1]: 0.223 nM
IC50 [2]: 0.92 nM
Kd [3]: 0.017 nM
EC50 [4]: 0.0853 nM
Kd [5]: 930 nM
Kd (Cynomolgus Monkey-FcRn): 610 nM
IC50 [6]: 0.75 nM
IC50 [7]: 0.88 nM
Kd [8]: 0.73 nM
koff [8]: 0.000173 s⁻¹
kon [8]: 237000 M⁻¹ s⁻¹
koff (hu-FCGRI (hu-CD64)): 0.0013 s⁻¹
kon (hu-FCGRI (hu-CD64)): 9.1e+06 M⁻¹ s⁻¹
Kd [9]: 3600 nM
binding result [10]: binds
Kd [11]: 2700 nM
Kd (hu-FCGRIIb (hu-CD32b)): 1100 nM
Kd [12]: 1600 nM
Kd [13]: 2400 nM
Kd [14]: 800 nM
B1: mAb7 (human IgG4 kappa, hinge stabilized) (antibody)
heavy: QVQLVQSGAEVKKPGASVKVSCKASGYTFTSYWINWVRQAPGQGLEWMGNIYPGSSLTNYNEKFKNRVTMTRDTSTSTVYMELSSLRSEDTAVYYCARLSTGTFAYWGQGTLVTVSSASTKGPSVFPLAPCSRSTSESTAALGCLVKDYFPEPVTVSWNSGALTSGVHTFPAVLQSSGLYSLSSVVTVPSSSLGTKTYTCNVDHKPSNTKVDKRV[human IgG4 Fc with S228P (EU numbers) skipped]
light: DIVMTQSPDSLAVSLGERATINCKSSQSLWDSGNQKNFLTWYQQKPGQPPKLLIYWTSYRESGVPDRFSGSGSGTDFTLTISSLQAEDVAVYYCQNDYFYPHTFGGGTKVEIKRGTVAAPSVFIFPPSDEQLKSGTASVVCLLNNFYPREAKVQWKVDNALQSGNSQESVTEQDSKDSTYSLSSTLTLSKADYEKHKVYACEVTHQGLSSPVTKSFNRGEC
notes: also called mAb7-G4; mAb7 (G4); copies: 2 + 2
